Results published in US10239957B2, “Peptide containing conjugates for dual molecular delivery of oligonucleotides” (Merck Sharp & Dohme Corp., priority 2013, dated 2019).

Tested on: CTNNB1
Test: In vitro DMD assay: mRNA silencing enhancement by peptide conjugates after siRNA-IV treatment
Type: cell-based
Settings: primary mouse hepatocytes, siRNA-IV 125 nM baseline
Method: Cryopreserved primary Mouse hepatocytes (Bioreclamation, LLC) were placed into Collagen Type I coated 96-well plates at 25,000 cells per well in serum-containing InVitroGRO CP media (Bioreclamation, LLC) and allowed 5 hours to attach. Media was replaced with InVitroGRO HI media and cells were treated with siRNA-IV at 125 nM [siRNA] for 1 hour. Media was replaced with InVitroGRO HI media and cells were treated for approximately 16 hours with experimental Peptide conjugates at various concentrations to establish a dose-response curve. Peptide conjugates were washed out after 16 hours with InVitroGRO HI media and cells allowed to incubate for an additional 24 hours. Cells were then lysed and mRNA expression of the siRNA target was measured by RT-qPCR (Applied Biosystems Taqman reagents). mRNA silencing activity of each Peptide conjugate was expressed as an enhancement above the baseline activity of 125 nM siRNA-IV alone with respect to the untreated cells and all siRNA target Ct values were normalized to PPIB mRNA for each well (dddCt) and summarized.
The structure of TGN-S-S-peptide is shown below and the activity data is listed in Table 5 (siRNA-IV concentration was kept at […]).

Substance | In vitro dddCt (vs. baseline SCE dose) (Targeted peptide dose 8 nM) | In vitro dddCt (vs. baseline SCE dose) (Targeted peptide dose 40 nM) | In vitro dddCt (vs. baseline SCE dose) (Targeted peptide dose 200 nM) | In vitro dddCt (vs. baseline SCE dose) (Targeted peptide dose 1000 nM) | In vitro dddCt (vs. baseline SCE dose) (Targeted peptide dose 5000 nM)
TGN-S-S-Seq-ID-45 (L) (CGGFEAIEGFIENGWEGMIDGWYGYGRKKRRQRR; TGN disulfide conjugate; L-amino acids; listed as Homo sapiens) | −0.14 | 0.04 | −0.08 | −0.01 | −0.26
TGN-S-S-Seq-ID-53 (L) (CIFGAIAGFIKNIWEGLIDGWYGKLALKLALKALKAALKLA; TGN disulfide conjugate; L-amino acids; listed as Homo sapiens) | −0.11 | −0.08 | −0.11 | −0.02 | 0.01
